Results reported in the supplement of paper PMC10126150.
Values marked as one replicate rest on one cluster of the flow cell; about a third of the high ones do not repeat.

Test system: ATP
Assay: switch fluorescence ratio, 500 uM ATP over buffer (Cy3 cluster intensity, sum of 5 cycles each) (fold (ratio)); higher = stronger signal-on switching upon ATP binding; sequences stand for … in TCGTCGGCAGCGTCAGATGTGTATAAGAGACAGTTTTTTTTTTTTTTTTTTTTTTTTT…TC
Conditions: aptamer strand: ATP DNA aptamer (quencher-CACCTGGGGGAGTATTGCGGAGGAAGG + anchor), 100 nM annealed; ATP concentration: 500 uM; one replicate
Summary of the method: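 Per cluster, summed Cy3 intensity from the target cycles was divided by that from the buffer cycles to give the fluorescence ratio, then averaged per switch-domain sequence. Clusters outside 100-1000 RFU were excluded. The Cy3-labelled switching-strand clusters, on a modified Illumina MiSeq flow-cell, were annealed to 100 nM quencher-labelled ATP aptamer and imaged in selection buffer, then after 15 min with 500 uM ATP at 22 °C, for five cycles with NaOH stripping and re-annealing between them.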
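Further: ATP exposure 15 min at 22 °C before imaging.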

Sequence	switch fluorescence ratio
GTTAGTCGAA	0.997
GAACCCTCCG	2.89
TTTTATAAA	1.04
GGGCTTAGCT	1.05
GGACAGCTAA	0.976
ACACGGTGGT	1.05
AGTGTTCTGA	0.972
GTAGTACCCA	0.999
TGTTTCCTGA	0.971
AGTGTTTGGG	0.971
AGATGCAAAA	1.04
CCAGATATAA	1.04
AGATGTGCAT	0.976
AATCGAAATT	1.04
TTGTTTGCGC	0.968
TCGTTCGTGC	1.06
TCGAGTGGGA	1.02
CCGGGACCTG	0.991
GGTTAAATA	0.955
TTGTACACGT	1.08
AAAGGCAGGT	1.05
TTTCAGTGT	1.05
GCTACGACGA	1.35
TGTATTGGAG	0.998
CGATGCCCTG	0.994

Sequence	switch fluorescence ratio
ATGAGAAATA	1.04
TAAGGGGCAC	0.987
CCCGGTTGGG	0.995
ACACTATTAC	1.19
AGTAGTAAAA	1.05
TCTGAGCGCT	1.07
TGACTTTA	0.996
CTGAGCTCGT	1.04
CGTTTTATGG	0.995
AGCCAATAAG	1.08
CCATCCAGCC	1.39
AAGCTAATGC	1.35
CGGGGCTGAG	0.995
ATAGTATATA	1.01
ATTATAGGCA	0.987
ACCGTATTGG	1.05
ATAACGAGAG	1.01
CGTTGGGCAA	0.994
TTGGGCATAA	1.01
CGGGTTTATG	0.966
GGCTTATCAT	0.939
TTAATGTGAG	0.953
CGGAAACGAC	1.17
GGCTAACAAT	1.01
AACTACGGA	1.08

Sequence	switch fluorescence ratio
GATATTTGTC	1.04
TCACATGACA	1.1
GACTATATGA	1.04
TGAGTATGGA	0.99
AATGTGAGCC	1.01
CTTATTGCTG	0.999
ATCCAGACGA	1.06
CTGGGAATGA	1.02
CCGAAGGGCG	0.974
TGCATAGCAC	1.02
GTAAGGGCTT	0.981
GCTGGGTTCC	1.03
ACCCATTAAT	0.971
CCTTGAAAGA	1
ATAAGCTGGG	1.06
TGCAACGC	1
GATAGAATAT	1.01
GACGGTGAAA	1.03
TACTTCAGAT	0.992
CAGTTGGTGA	1.03
TTGTAAGAGG	1.02
GGCCAACTTT	0.995
GGGCCTAGGT	0.992
ATTAGACATA	0.986
TTGCTCTATG	1.02

Sequence	switch fluorescence ratio
GTGACCTTAT	1.07
GCATAATCAC	1.15
ATAGGTGGGA	0.988
TAAATGGCTG	0.998
GGCTTGTTTG	1.01
ACCGAGTGGA	1.05
ACATAGGCTA	1.01
GAAGCGGCGT	0.972
GGGCATGTCA	1.03
GTTGGTAAGT	1.01
CTTAGCTCGC	1.07
TAAAGACTTG	0.955
TAAGAGTTG	0.963
AGATGGGGCT	0.993
ACAGGGAATT	1.01
CGCTACTACT	3.26
GCAGTACAGC	1.03
TTATTCAGAG	1.05
ACGCTGGGAA	1.02
ATCAGGAGCA	1.17
TAAATTGCT	1.02
CTTCACAACC	1.25
ACATGTAAGT	1
GTGACGGGTA	0.941
TCAGACTGCT	1.03

Sequence	switch fluorescence ratio
GACAGCTCTT	1.01
CGCGCATGGG	1.07
GTAAATTATT	0.962
AAGGGCCGAG	1.01
GGGTTTCTGA	1.02
GATGTCCAC	1.03
AAATACTCTT	1.13
AGGAACGCAT	1.23
TAGAGGCGC	0.96
CCTGGTTGAT	1.02
GATGTCTACA	0.986
TTAAAGATAC	1.12
GTGATGGGAG	1.02
GCAGGGTATT	0.963
GGAGCATTAA	2.79
AAAGTCAGAG	0.974
AGGTCACATG	1.03
TAAGAAAATG	1.08
TTACATATAT	1.04
CCAACTATAT	1.07
CCTTGTGATT	0.993
TCTCACGCGT	1.05
CTTTTCTCAG	0.981
AGTAGGGAAG	0.98
CGATAGTGCG	0.947

Sequence	switch fluorescence ratio
ATTGTCGAGG	1.05
GGGCTGGCAA	1.1
CCTTTTTGAG	0.97
CTTGTGAGTG	0.986
GGCGAGGGAT	0.97
GCATATATTA	1.01
GGGTTGCGCA	0.973
TTAAGGGGTG	1.02
GAGACTTTGT	1.01
ATACGCATAA	2.84
TTATTATGAA	1.02
GGCTCACCCT	1.06
TGGCACAAAA	1.04
ATAAAGCGG	0.996
ATCGTTGCGC	0.96
CTTAGTTGA	0.99
GAGTAGCTAG	0.952
CAACCCATAA	1.01
GATCCTGGTA	1.01
TAAGATAGTT	1.03
GTGCATTTTG	1.03
TGGGTGAACG	1.01
ACTCGAGGTG	1.13
TAAAAAGCG	1
ATTTTAGTTC	1.01

Sequence	switch fluorescence ratio
TCACCGGTA	1.02
ACCAATGTAT	0.976
TAGGGAGCAG	1.34
ATTCCTCATT	1.02
TTAGATCCCG	1.02
CAGGGGCTAG	0.97
GATTTCGTGC	1.02
ATCCAAAGTG	1.03
TTGACCACA	1.08
TAAAATGCTC	1.16
GCTCTACTTT	1.01
AGGTCATTAT	1.01
TACGGTGATT	1.04
AAGAGCCTTG	0.965
AGTACGGCCG	0.942
CTAGCACCGG	1.06
TACAGCTCGG	0.974
ATCCATACCA	1.04
CTTGATTAGT	1.02
CCAGAAATGA	1.01
TGTTTAGAGT	1
AAAATCGGTC	0.938
GTGTCGCGGT	0.997
CTAGCAGGGG	1.22
ATTTGTGCTC	0.973

Sequence	switch fluorescence ratio
GCGATCGCAT	0.999
TGACGCAGAA	2.56
TTCTTTAGTA	0.924
ATTTTCTAGC	0.984
TTGGTTGGTA	0.994
ATAAACTAGC	1.07
AGGCGCGATA	1.18
AGGAGACTCT	0.986
TAAATACTGT	1.07
GATTCTATCT	0.992
TCGTTGCCCC	1.15
TGTCGAGAAA	0.958
ACTAGGAGTT	0.988
AATATTGAGC	0.999
CACGAGGTTA	0.998
TGGAAGTAAC	1.07
TATCCCGCT	1.11
TCTATCGTCA	1.04
TCACATGCTA	1.02
AACGACGTGG	0.976
GGTCGAATGG	1.02
CTTCTGTTCC	1.04
GGGTGGTTAA	1.02
AATACCGTGC	1.16
ATTCAGCCGG	1.08
